Test results as given in PubChem BioAssay AID1347073 (National Center for Advancing Translational Sciences (NCATS), 2019).
In all, about 45,000 compounds went through this assay and about 200 (0.44%) were called active. About 7% were inconclusive and are not listed. The call rests on the fitted dose curve; in most records, active means well fitted activation curve with a large enough effect; inconclusive means small, poorly fitted or top-dose-only effect; inactive means no such curve, though single readings can be large or run the other way. Some of the results follow.

test: qHTS of TDP-43 Inhibitors: NCGC Sytravon Library Screen; conditions: yeast TDP-43 toxicity rescue, BacTiter-Glo growth, 24 h; series mostly up to 46.1 µM; growth rescue (activation): at the top concentration; further: 0% is about no effect; nearly all actives have a fitted effect of over 55% in size
How it was run: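 TDP-43-expressing yeast, pregrown in raffinose, seeded at OD600 0.02 in galactose medium with compound for 24 hr at 30 deg C. Growth read by BacTiter-Glo luminescence, so rescue of toxicity appears as activation.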

Row | Compound | growth rescue (activation)
1 | O=C(Nc1ccc(-c2nnc3n2CCCCC3)cc1)c1cnccn1 | inactive: 1.53%
2 | CC(C)(C)C(=O)Nc1ccc(Cc2ccncc2)cc1 | inactive: -8.32%
3 | CC(=O)Nc1ccc(C(=O)OCCc2ccccc2)cc1 | inactive: -9.39%
4 | CC(C)(C)NC(=S)NCc1ccc2c(c1)OCO2 | inactive: 2.72%
5 | O=C(CCC1CCCN(C(=O)c2cccs2)C1)N1CCN(c2ccccn2)CC1 (stereo unspecified) | inactive: 9.87%
6 | CC(C)Nc1nc(-c2ccccc2CO)c2sccc2n1 | inactive: 23.9%
7 | Cc1cnc(C(=O)OCC(=O)NC2CCCCCCC2)cn1 | inactive: 10.6%
8 | COc1cccc2cc(C(=O)N(C)C3CCN(C)CC3)c(=O)oc12 | inactive: -5.95%
9 | O=C(CCNC(=O)c1ccc([N+](=O)[O-])cc1)NCCc1ccccc1 | inactive: 1.61%
10 | CN1CC(C(=O)O)Cc2c1ccc1ccccc21 (stereo unspecified) | inactive: -41.3%
11 | O=C(COC(=O)/C=C/c1ccc([N+](=O)[O-])cc1)NC(c1ccccc1)c1ccccc1 | inactive: 19.2%
12 | COc1ccc(NC(=S)NC23CN4CN(CN(C4)C2)C3)cc1 | inactive: 11.1%
13 | O=C(NCc1ccccn1)C(=O)N/N=C/c1ccccc1O | inactive: -6.71%
14 | COc1ccc(NC(=O)c2cccc(N3C(=O)C4C5C=CC(C6CC56)C4C3=O)c2)cc1 (stereo unspecified) | inactive: 17.7%
15 | COc1cc(NC(=O)C/C(C)=N/NC(=O)C(OC)c2ccccc2)c(OC)cc1Cl (stereo unspecified) | inactive: -6.84%
16 | CCOc1ccccc1NC(=O)N1CCCC1C(=O)NCc1ccco1 (stereo unspecified) | inactive: 0.221%
17 | Cc1cc(=O)oc2cc(NC(=S)NNC(=O)c3c(Cl)cnn3C)ccc12 | inactive: 4.13%
18 | Cn1c(N)c(C(=O)COC(=O)c2cccc(S(=O)(=O)N3CCCCC3)c2)c(=O)n(C)c1=O | inactive: -3.61%
19 | Cc1ccc(CNC(=S)Nc2cc(C(=O)O)ccc2C)cc1 | inactive: -3.1%
20 | COC(=O)c1ccc(NC(=S)NCCc2ccc(OC)cc2)cc1 | inactive: -10.1%
21 | COc1ccc(C(C)(C)C)cc1NC(=O)c1ccc[n+]([O-])c1 | inactive: 12.5%
22 | COc1cc2c(cc1OC)CC(C(=O)NCc1ccccc1)NC2 (stereo unspecified) | inactive: 8.96%
23 | CC(C)N=C1NN=C(c2cccs2)C(CC(=O)O)S1 (stereo unspecified) | inactive: 10.1%
24 | Cc1cccc(NC(=O)CSc2ncnc3sc(C)cc23)c1 | inactive: -0.213%

Row | Compound | growth rescue (activation)
25 | Cc1ccccc1NS(=O)(=O)c1ccc(C(=O)OCC(=O)NCC(C)C)cc1 | inactive: 18.6%
26 | CCN(CC)S(=O)(=O)c1ccc(Cl)c(NC(C)=O)c1 | inactive: -6.5%
27 | COCc1cc(CN2CCCC(CNC(=O)c3ccc(F)cc3)C2)ccc1OC (stereo unspecified) | inactive: 8.56%
28 | CCc1c(C)nc(N)c(C#N)c1-c1ccccc1 | inactive: 6.79%
29 | CCc1sc(C(=O)Nc2ccc(N3CCOCC3)cc2)cc1C | inactive: 25.3%
30 | CCOc1ccc(-c2noc(-c3cccnc3)n2)cc1OC | inactive: 22.1%
31 | CC1(C(=O)Nc2cccc(C#N)c2)CCN1C(=O)CCc1ccccc1 (stereo unspecified) | inactive: 18%
32 | Cc1nn(C)cc1/C=C/C(=O)c1ccc(O)cc1 | inactive: 8.1%
33 | O=C(NCC(=O)N(CCN1CCOCC1)C(C(=O)NC1CCCC1)c1cccnc1)c1cccs1 (stereo unspecified) | inactive: 14.6%
34 | Cc1nn(Cc2c(Cl)cccc2Cl)c(Cl)c1/C=N/NC(=O)c1cccnc1 | inactive: 3.54%
35 | COc1ccc(-c2nc(NC3=NCCCCC3)sc2C)cc1 | inactive: -7.02%
36 | O=Cc1ccccc1Oc1nc(N2CCOCC2)nc(N2CCOCC2)n1 | inactive: -4.39%
37 | CC(=O)Nc1cnc(/C=C\CCCO)cn1 | inactive: 1.97%
38 | COc1ccc2[nH]c(C(=O)N3CCNCC3)cc2c1OC | inactive: -2.04%
39 | CC(C(=O)NCc1ccccn1)c1ccc([N+](=O)[O-])cc1 (stereo unspecified) | inactive: 2.55%
40 | Cc1cc(C)c2[nH]c(O)c(N=Nc3ccc(C(=O)O)cc3)c2c1 | inactive: -7.62%
41 | COc1ccccc1-n1nnnc1SCC(=O)NC1CCCCC1 | inactive: 10.2%
42 | CSc1ccc(/C=N/N2CCN(Cc3ccccc3)CC2)cc1 | inactive: 1.12%
43 | CC1CN(S(=O)(=O)c2ccccc2)CN1C(=O)N1CCOCC1 (stereo unspecified) | inactive: 4.77%
44 | COc1cc(/C=C/C(=O)OCC(=O)NC(=O)NC(C)C)cc(OC)c1OC | inactive: -5.44%
45 | Cc1cccc(C)c1NC(=O)CCn1cnc2ccccc2c1=O | inactive: 4.13%
46 | COc1ccc(CNC(c2ccccc2)c2ccc(Cl)cc2)cc1 (stereo unspecified) | inactive: 7.12%
47 | CC(=O)C1CCCN(C(=O)c2ccc3nc(Cc4cccc(Cl)c4)oc3c2)C1 (stereo unspecified) | inactive: 14.7%
48 | O=C(COc1ccc(C(=O)c2ccccc2)cc1)Nc1cccnc1 | inactive: 5.92%

Row | Compound | growth rescue (activation)
49 | Cc1ccc(C)c(Cn2ncc3ccccc32)c1 | inactive: 26.6%
50 | COc1ccc(NC(=O)C(c2ccccc2)N(C)C(=O)c2ccc(=O)[nH]c2)cc1 (stereo unspecified) | inactive: 16.9%
51 | CN(CC(=O)Nc1cccc(S(=O)(=O)N2CCCC2)c1)Cc1ccccc1 | inactive: 29.7%
52 | COc1ccc(OC)c(C(C(=O)NC2CCCCC2)N(C(=O)c2ccccn2)c2cccnc2)c1 (stereo unspecified) | inactive: -1.45%
53 | O=C(Nc1ccccc1F)N(Cc1ccc(F)cc1)Cc1nc2ccccc2c(=O)[nH]1 | inactive: -9.99%
54 | O=c1c2cnn(-c3ccccc3)c2ncn1Cc1ccccn1 | inactive: 24.8%
55 | Cc1ccc(NC(=O)c2ccc(Br)o2)c([N+](=O)[O-])c1 | inactive: -2.03%
56 | O=C(COC(=O)c1ccccc1OCc1ccc(Cl)cc1)NCC1CCCO1 (stereo unspecified) | inactive: 18.1%
57 | Cc1ccccc1NC(=O)Nc1cccs1 | inactive: 17.7%
58 | CCCCN(C)C(=O)Cn1cnc2sc(C)c(S(=O)(=O)N3CCN(c4ccccc4OC)CC3)c2c1=O | inactive: -3.19%
59 | CCn1nnc(NC(=O)c2c(OC)cccc2OC)n1 | inactive: 25.8%
60 | Cc1ccc(OCC(=O)N(Cc2sccc2C)C2CCS(=O)(=O)C2)cc1 (stereo unspecified) | inactive: 7.26%
61 | COc1ccc(-c2csc(C3=C(O)CN(Cc4ccc(S(N)(=O)=O)cc4)C3=N)n2)cc1OC | inactive: 20.1%
62 | COc1ccc(/C=C/C(=O)c2ccc(O)cc2)cc1CN1CCOCC1 | inactive: -14.6%
63 | COc1ccc(CCN2CC(C(=O)NCC3(O)CCCCC3)CCC2=O)cc1 (stereo unspecified) | inactive: 6.21%
64 | O=C(COC(=O)CC(c1ccccc1)c1ccccc1)Nc1cccc(F)c1 | inactive: 22.7%
65 | NS(=O)(=O)c1ccc(CCNC(=O)COC(=O)CCc2ccccc2)cc1 | inactive: 10.3%
66 | CCCCn1c(=O)c(CCC(=O)OCC(=O)NC(=O)NCCOC)nc2ccccc21 | inactive: 12.6%
67 | CCN(c1ccccc1)S(=O)(=O)c1ccc(OC)c(NC(=O)c2c(C)noc2C)c1 | inactive: 10.7%
68 | CC(=O)Nc1ccc(SCC(=O)OCC(=O)NC(=O)NCCC(C)C)cc1 | inactive: -2.36%
69 | CC(C)CCNC(=O)C(=O)NC1CCCC1 | inactive: -10.6%
70 | CC1=C(C(=O)OCc2ccccc2)C(/C=C/c2ccccc2)NC(=S)N1 (stereo unspecified) | inactive: -3.95%
71 | O=C(O)c1ccc2nc(-c3ccco3)c(-c3ccco3)nc2c1 | inactive: 11%
